Laboratory results published in the supplement of paper PMC11417369.
± gives the standard deviation of the averaged measurements. The list shows a part of the results.

Test system: PfAP2-G AP2 domain (GST-tagged)
Assay: gcPBM binding intensity (ln(normalized median fluorescence intensity)); higher = stronger DNA binding
In short: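 Each value is the highest Masliner-normalised natural-log median intensity across replicate spots of either orientation of a probe. The probes were primer-extended double-stranded 36-bp intergenic genomic sequences on an Agilent 4 × 180k array, alongside negative controls, exposed for 1 h to GST-tagged P. falciparum DNA-binding domains expressed in E. coli. Bound protein was picked up with Alexa488 anti-GST antibody and scanned at 488 nm.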

“TCATAAAGAACAAAGTGTACCTATATATTACATACA [XGTACX_site7595]” and “AATTGTAAATTGGGCACTTATAAAAATGAACAAATA [CACACA_negctrl_site1583]” are within error of each other in “gcPBM binding intensity (ln)” value: 11 ± 0.58 for the first, 10.4 ± 0.25 for the second.

Compared with “ATATTTCATCTAGCTACACACATATAATAAATTATT [CACACA_site4094]”, “ATTAAAAGGGGGTTTACATGTGTGTGTGTAATATGG [TGCATGCA_negctrl_site293]” is higher in “gcPBM binding intensity (ln)” value: 10.14 ± 0.035 for the first, 10.5 ± 0.29 for the second.

“TACAACAATTTTTGCACACACCAAAACATAAAATAA [CACACA_site4964]” and “TTTTCAATATATAGAGCATGCGCATCCACAAATATG [TGCATGCA_site380]” are the same in “gcPBM binding intensity (ln)” value: 10.2 ± 0.28 for the first, 10.2 ± 0.092 for the second.

Going from “TGCCAATTTTTAAAAACATGCATTATATAGAATAAA [TGCATGCA_site872]” to “AATGGAAAATTATTAACACACACATATAAATATATA [CACACA_site7899]”, the “gcPBM binding intensity (ln)” value rises from 9.885 ± 0.021 to 9.935 ± 0.021.

Compared with “TATATACCGATATATACACACAAATACATAAGCTTC [CACACA_site6760]”, “TTATACATTTGTAAATAAATAGAACTGTATTTTTTT [TGCATGCA_negctrl_site397]” is lower in “gcPBM binding intensity (ln)” value: 10 ± 0.13 for the first, 9.72 ± 0.042 for the second.

“CAAAATATTTTTATAACACACATATTTATAACGTGC [CACACA_site6659]” and “TTTTGATTGTTATTCGTATATTATTTTATGATTATA [CACACA_negctrl_site1593]” are within error of each other in “gcPBM binding intensity (ln)” value: 9.925 ± 0.035 for the first, 9.905 ± 0.064 for the second.

“AATAATCATTTTCATAGTACGTATGATTAGAAAAAA [XGTACX_site2589]” and “TATATATTATGACCACCACACACCTATACACATAAC [CACACA_site8773]” are within error of each other in “gcPBM binding intensity (ln)” value: 11 ± 0.66 for the first, 11.3 ± 0.79 for the second.

“TATTTCTGATTATTTTGTACACATTATATATAATGC [XGTACX_site6990]” and “CTAAATATATAAAAAAGTACAAAATAAATAATAATT [XGTACX_site2442]” are the same in “gcPBM binding intensity (ln)” value: 11.2 ± 0.83 for the first, 11.2 ± 0.66 for the second.

“GGATAGATAATAGGGGGTACAAATATACATACATAT [XGTACX_site5089]” and “TTTTAATGAAAACACACACACACATATATATATATA [CACACA_site5295]” are within error of each other in “gcPBM binding intensity (ln)” value: 11.5 ± 0.91 for the first, 10.3 ± 0.44 for the second.

“GAAAATAGAAAAAGCACACATATATTTTGGAATGTA [CACACA_site551]” and “AATATAAACAGACACACACACATATAGATTTATATT [CACACA_site7382]” are within error of each other in “gcPBM binding intensity (ln)” value: 9.81 ± 0.28 for the first, 10.04 ± 0.057 for the second.

“TAATAAGTACCTTTTGCATGTGGCACGCTTTTTTTT [TGCATGCA_site573]” and “TATTATATAACAAAAAGTACTTATAAGAAATATATA [XGTACX_site5467]” are within error of each other in “gcPBM binding intensity (ln)” value: 10.9 ± 0.41 for the first, 11.2 ± 0.79 for the second.

“AAATGAATTATATAATATATATAAATAAATAAATAA [CACACA_negctrl_site359]” and “AAATTTTTTAATTTTTCTCATTTAATTTAAAAATTA [GTGCAC_negctrl_site155]” are within error of each other in “gcPBM binding intensity (ln)” value: 9.565 ± 0.092 for the first, 9.57 ± 0.21 for the second.

AAATTAAAGATAAAAGTGCAAAATTATAAATTTATT and “AAATTAATGAAATATACACACATATATAAATATATA [CACACA_site4378]” are within error of each other in “gcPBM binding intensity (ln)” value: 9.76 ± 0.12 for the first, 9.675 ± 0.064 for the second.

Compared with “ATAAAAAAGCAACATCATATGTTTTTATAGAGTATT [CACACA_negctrl_site745]”, “AACAAGTTGCATGGTGCACACATGTATTTATATCTA [CACACA_site5414]” is higher in “gcPBM binding intensity (ln)” value: 9.62 ± 0.22 for the first, 10.4 ± 0.4 for the second.

Going from “TATTAAAAATATTATGTACACACATTTTAGATATTT [CACACA_site8549]” to “AAAAGTATATATTCAGTGCATAGTCTTTAAATATAA [GTGCAC_site9522]”, the “gcPBM binding intensity (ln)” value falls from 11.4 ± 0.8 to 9.875 ± 0.007.

“ATAAGCATCTGGATATGTACTTATTCCTTTAAAGAT [XGTACX_site6225]” and “TATATATAACATTGTACACACAAAGAAATAATATTA [CACACA_site3035]” are within error of each other in “gcPBM binding intensity (ln)” value: 11.2 ± 0.82 for the first, 11.3 ± 0.97 for the second.

“ATATAAATAAAAAAAAAAAAAAAAAAAAAAAAAAAA [CACACA_negctrl_site972]” and “TTAAAATTTTAAAAATTTTAATTTTACAAAAAAAAT [TGCATGCA_negctrl_site227]” are within error of each other in “gcPBM binding intensity (ln)” value: 9.52 ± 0.21 for the first, 9.56 ± 0.23 for the second.

First: TTTCTTTCTTTCTTTTTTTAAATATTTTTTAAAAAT [TGCATGCA_negctrl_site206]
Second: TATGCTACATTATATGTACACACATATACATATATA [CACACA_site8199]
The “gcPBM binding intensity (ln)” value of the first is lower: 10.04 ± 0.014 for the first, 11.3 ± 0.93 for the second.

“ATTTATACGTAATATGCATAAATATAAATATATATA [XGTACX_negctrl_site133]” and “TATTGTAAGAAAGGCACACAGATAAAATTATTATAT [CACACA_site2921]” are within error of each other in “gcPBM binding intensity (ln)” value: 10 ± 0.14 for the first, 10.06 ± 0.021 for the second.

First: AAGAAAAATATTCGTGTGCACAGAAGTATATGTGTG [GTGCAC_site9814]
Second: ACAAGTTAAAATATTACACACATATAAATATTTATA [CACACA_site7467]
The “gcPBM binding intensity (ln)” value of the first is higher: 10.5 ± 0.2 for the first, 10 ± 0.18 for the second.

“ATCATCTTTATTCAAGTGCACTGAAAATTTTTTATA [GTGCAC_site9801]” and “ATATAAGTGTATCTAACACACAAATATATAAAAATG [CACACA_site1956]” are within error of each other in “gcPBM binding intensity (ln)” value: 10.4 ± 0.33 for the first, 10.2 ± 0.35 for the second.

In the case of “ATAATTATATGGCTAGCACACAATAAATAATTATAT [CACACA_site3815]”, the “gcPBM binding intensity (ln)” value is reported as 10 ± 0.12.
